Measurements taken from US10801046B2, “Methods and materials for biosynthesizing multifunctional, multivariate molecules via carbon chain modification” (INVISTA NORTH AMERICA S.A.R.L., priority 2016, dated 2020).

How the values were obtained:
Type in all cases: biochemical
[1] = Aminotransferase activity, reverse direction (7-aminoheptanoate to 7-oxoheptanoate), L-alanine formation by RP-HPLC; details: cell free extract, 10 mM substrate, 25° C., 4 h, against empty vector control, FIG. 48
Protocol: (§1) A sequence encoding an N-terminal His-tag was added to the genes from Chromobacterium violaceum, Pseudomonas syringae, Rhodobacter sphaeroides, and Vibrio Fluvialis encoding the aminotransferases of SEQ ID NOs: 116 (GenBank Accession No. AAQ59697.1), 126 (GenBank Accession No. AAY39893.1), 127 (GenBank Accession No. ABA81135.1), and 128 (GenBank Accession No. AEA39183.1), respectively such that N-terminal HIS tagged aminotransferases could be produced. Each of the resulting modified genes was cloned into a pET21a expression vector under control of the T7 promoter and each expression vector was transformed into a BL21 [DE3] E. coli host. The resulting recombinant E. coli strains were cultivated at 37° C. in a 250 mL shake flask culture containing 50 mL LB media and antibiotic selection pressure, with shaking at 230 rpm. Each culture was induced overnight at 16° C. using 1 mM IPTG.
(§2) The pellet from each induced shake flask culture was harvested via centrifugation. Each pellet was resuspended and lysed via sonication. […]
Enzyme activity assays in the reverse direction (i.e., 7-aminoheptanoate to 7-oxoheptanoate) were performed in a buffer composed of a final concentration of 50 mM HEPES buffer (pH=7.5), 10 mM 7-aminoheptanoate, 10 mM pyruvate and 100 μM pyridoxyl 5′ phosphate. […] The formation of L-alanine from pyruvate was quantified via RP-HPLC.

[2] = Aminotransferase activity, forward direction (7-oxoheptanoate to 7-aminoheptanoate), pyruvate formation by RP-HPLC; details: cell free extract, 10 mM substrate, 10 mM L-alanine, 25° C., 4 h, against empty vector control, FIG. 49
Protocol: as §1, §2
Enzyme activity in the forward direction (i.e., 7-oxoheptanoate to 7-aminoheptanoate) was confirmed for the aminotransferases of SEQ ID NO: 126 (GenBank Accession No. AAY39893.1), SEQ ID NO: 127 (GenBank Accession No. ABA81135.1), and SEQ ID NO: 128 (GenBank Accession No. AEA39183.1). […] The formation of pyruvate was quantified via RP-HPLC.

[3] = Aminotransferase activity, 7-aminoheptanol to 7-oxoheptanol, L-alanine formation by RP-HPLC; details: cell free extract, 10 mM substrate, 25° C., 4 h, against empty vector control, FIG. 52
Protocol: (§3) A nucleotide sequence encoding an N-terminal His-tag was added to the Chromobacterium violaceum, Pseudomonas syringae and Rhodobacter sphaeroides genes encoding the aminotransferases of SEQ ID NOs: 116 (GenBank Accession No. AAQ59697.1), 126 (GenBank Accession No. AAY39893.1), and 127 (GenBank Accession No. ABA81135.1), respectively such that N-terminal HIS tagged aminotransferases could be produced. The modified genes were cloned into a pET21a expression vector under the T7 promoter. Each expression vector was transformed into a BL21[DE3] E. coli host. Each resulting recombinant E. coli strain were cultivated at 37° C. in a 250 mL shake flask culture containing 50 mL LB media and antibiotic selection pressure, with shaking at 230 rpm. Each culture was induced overnight at 16° C. using 1 mM IPTG.
The pellet from each induced shake flask culture was harvested via centrifugation. Each pellet was resuspended and lysed via sonication. The cell debris was separated from the supernatant via centrifugation and the cell free extract was used immediately in enzyme activity assays.
(§4) Enzyme activity assays in the reverse direction (i.e., 7-aminoheptanol to 7-oxoheptanol) were performed in a buffer composed of a final concentration of 50 mM HEPES buffer (pH=7.5), 10 mM 7-aminoheptanol, 10 mM pyruvate, and 100 μM pyridoxyl 5′ phosphate. […] The formation of L-alanine was quantified via RP-HPLC.

[4] = Aminotransferase activity, heptane-1,7-diamine to 7-aminoheptanal, L-alanine formation by RP-HPLC; details: cell free extract, 10 mM substrate, 25° C., 4 h, against empty vector control, FIG. 50
Protocol: as §3, with “A” for “A nucleotide”, “aeruginosa, Pseudomonas syringae, Rhodobacter sphaeroides, Escherichia coli,” for “syringae”, “Vibrio fluvialis” for “Rhodobacter sphaeroides”, “AAQ59697.1), 119 (RefSeq Accession No. NP_417544.5), 125 (GenBank Accession No. AAGO8191.1),” for “AAQ59697.1),”, “AAY39893.1),” for “AAY39893.1), and”, “ABA81135.1), and 128 (GenBank Accession No. AEA39183.1),” for “ABA81135.1),”
The pellet from each induced shake flask culture was harvested via centrifugation. […]
as §4, with “heptane-1,7-diamine” for “7-aminoheptanol”, “7-aminoheptanal)” for “7-oxoheptanol)”, “heptane-1,7-diamine,” for “7-aminoheptanol,”

[5] = Aminotransferase activity, N7-acetyl-1,7-diaminoheptane to N7-acetyl-7-aminoheptanal, L-alanine formation by RP-HPLC; details: cell free extract, 10 mM substrate, 25° C., 4 h, against empty vector control, FIG. 51
Protocol: The activity of the N-terminal His-tagged aminotransferases of SEQ ID NOs: 116 (GenBank Accession No. AAQ59697.1), 119 (RefSeq Accession No. NP_417544.5), 125 (GenBank Accession No. AAGO8191.1), 126 (GenBank Accession No. AAY39893.1), 127 (GenBank Accession No. ABA81135.1), and 128 (GenBank Accession No. AEA39183.1) (see Example 6) for converting N7-acetyl-1,7-diaminoheptane to N7-acetyl-7-aminoheptanal was assayed using a buffer composed of a final concentration of 50 mM HEPES buffer (pH=7.5), 10 mM N7-acetyl-1,7-diaminoheptane, 10 mM pyruvate and 100 μM pyridoxyl 5′ phosphate. Each enzyme activity assay reaction was initiated by adding a cell free extract of the aminotransferases or the empty vector control to the assay buffer containing the N7-acetyl-1,7-diaminoheptane then incubated at 25° C. for 4 h, with shaking at 250 rpm. The formation of L-alanine was quantified via RP-HPLC.

B1: SEQ ID NO: 127: Rhodobacter sphaeroides aminotransferase (protein)
chain: MTRNDATNAAGAVGAAMRDHILLPAQEMAKLGKSAQPVLTHAEGIYVHTEDGRRLIDGPAGMWCAQVGYGRREIVDAMAHQAMVLPYASPWYMATSPAARLAEKIATLTPGDLNRIFFTTGGSTAVDSALRFSEFYNNVLGRPQKKRIIVRYDGYHGSTALTAACTGRTGNWPNFDIAQDRISFLSSPNPRHAGNRSQEAFLDDLVQEFEDRIESLGPDTIAAFLAEPILASGGVIIPPAGYHARFKAICEKHDILYISDEVVTGFGRCGEWFASEKVFGVVPDIITFAKGVTSGYVPLGGLAISEAVLARISGENAKGSWFTNGYTYSNQPVACAAALANIELMEREGIVDQAREMADYFAAALASLRDLPGVAETRSVGLVGCVQCLLDPTRADGTAEDKAFTLKIDERCFELGLIVRPLGDLCVISPPLIISRAQIDEMVAIMRQAITEVSAAHGLTAKEPAAV
modifications: Rhodobacter sphaeroides; Rhodobacter sphaeroides (strain ATCC 17023 / 2.4.1 / NCIB 8253 / DSM 158)
notes: Rhodobacter sphaeroides aminotransferase
In the case of B1, the “acceptance of 7-aminoheptanoate as substrate” value [1] is reported as “accepted 7-aminoheptanote as substrate”, the “acceptance of 7-oxoheptanoate as substrate, forming 7-aminoheptanoate” value [2] is reported as “accepted 7-oxoheptanoate as a substrate” and the “acceptance of 7-aminoheptanol as substrate, forming 7-oxoheptanol” value [3] is reported as “accepted 7-aminoheptanol as a substrate”. For the same molecule, the “acceptance of heptane-1,7-diamine as substrate, forming 7-aminoheptanal” value [4] was “accepted heptane-1,7-diamine as substrate” and the “acceptance of N7-acetyl-1,7-diaminoheptane as substrate, forming N7-acetyl-7-aminoheptanal” value [5] was “accepted N7-acetyl-1,7-diaminoheptane as a substrate”.
